Measured values: patent US6566334B1, “Short amphipathic peptides with activity against bacteria and intracellular pathogens” (priority 1997, dated 2003)
At least one peptide structure holds a part that was inferred or is arguable (an end, a ring closure or a residue). Where a SMILES comes first, the peptide text is derived from it. [ ]: non-standard residue; d: D form. Ac6c = NC1(C(=O)O)CCCCC1; Api = NC1(C(=O)O)CCNCC1; Aib = CC(C)(N)C(=O)O

How the values were obtained:
[1] = tested on: Murine macrophages infected with virulent B. abortus, strain 2308; format: cell-based, BALB/c mice
[2] = tested on: Escherichia coli, ATCC 25922
[3] = Circular dichroism (CD) in SDS micelles, percent helicity; format: physicochemical; settings: 25 mM SDS micelles, 100-200 μM peptide
[4] = tested on: B. abortus strain 2308; set-up: species or system BALB/c mice; settings: mouse, in vivo; for % Bacterial Reduction: iv
[5] = tested on: Staphylococcus aureus, ATCC 25723

Question: Which “Infected Macrophage Survival Rate” value [1] does the source give for CC(C)(NC(=O)C(C)(C)NC(=O)[C@H](CCCCN)NC(=O)[C@H](CCCCN)NC(=O)C(C)(C)NC(=O)C(C)(C)NC(=O)[C@H](CCCCN)NC(=O)C(C)(C)NC(=O)C(C)(C)NC(=O)[C@H](CCCCN)NC(=O)[C@@H](N)CCCCN)C(N)=O [Ai-11, H—LysLysAibAibLysAibAibLysLysAibAib—NH2] (H-KK[Aib][Aib]K[Aib][Aib]KK[Aib][Aib]-NH2) here?
Answer: 38.0 ± 1.00

Question: And the “Antibacterial activity against E. coli (in words)” value [2]?
Answer: diminished, but measurable activity

Question: And the “% Helicity (% α helix)” value [3]?
Answer: 35%

Question: And the “% Bacterial Reduction” value [4]?
Answer: 63%

Question: What about the “Antibacterial activity against S. aureus (in words)” value [5] of the same molecule?
Answer: no activity

Question: What does the source list for CC(=O)N[C@@H](CCCCN)C(=O)N[C@@H](CCCCN)C(=O)NC(C)(C)C(=O)NC(C)(C)C(=O)N[C@@H](CCCCN)C(=O)NC(C)(C)C(=O)NC(C)(C)C(=O)N[C@@H](CCCCN)C(=O)N[C@@H](CCCCN)C(=O)NC(C)(C)C(=O)NC(C)(C)C(N)=O [Ai-11-ac, Ac—LysLysAibAibLysAibAibLysLysAibAib—NH2] (Ac-KK[Aib][Aib]K[Aib][Aib]KK[Aib][Aib]-NH2)?
Answer: Infected Macrophage Survival Rate [1]: 63.0 ± 1.00; % Bacterial Reduction [4]: 30%

Question: For CC(C)(NC(=O)C(C)(C)NC(=O)[C@H](CCCCN)NC(=O)[C@H](CCCCN)NC(=O)C(C)(C)NC(=O)C(C)(C)NC(=O)[C@H](CCCCN)NC(=O)C(C)(C)NC(=O)C(C)(C)NC(=O)[C@H](CCCCN)NC(=O)[C@H](CCCCN)NC(=O)C(C)(C)NC(=O)C(C)(C)NC(=O)[C@@H](N)CCCCN)C(N)=O [Ai-14, H—LysAibAibLysLysAibAibLysAibAibLysLysAibAib—NH2] (H-K[Aib][Aib]KK[Aib][Aib]K[Aib][Aib]KK[Aib][Aib]-NH2), which “Infected Macrophage Survival Rate” value [1] is on record?
Answer: 54.3 ± 1.53

Question: And the “Times more active than Al-14” value ([2]; from MIC values of Table 2)?
Answer: 8-16 times

Question: And the “% Helicity (% α helix)” value [3]?
Answer: 42%

Question: And the “% Bacterial Reduction” value [4]?
Answer: 73%

Question: With NCCCC[C@H](NC(=O)[C@H](CCCCN)NC(=O)C1(NC(=O)C2(NC(=O)[C@H](CCCCN)NC(=O)C3(NC(=O)C4(NC(=O)[C@H](CCCCN)NC(=O)[C@@H](N)CCCCN)CCCCC4)CCCCC3)CCCCC2)CCCCC1)C(=O)NC1(C(N)=O)CCCCC1 [Ch-10, H—LysLysChChLysChChLysLysCh—NH2] (H-KK[Ac6c][Ac6c]K[Ac6c][Ac6c]KK[Ac6c]-NH2) as the molecule, how does the “% Helicity (% α helix)” value [3] read?
Answer: 43%

Question: What about the “Reduction in bacterial infection compared to controls (in words)” value [4] of the same molecule?
Answer: no significant reduction in bacterial infection

Question: And the “% Bacterial Reduction” value [4]?
Answer: 0%

Question: Which “% Helicity (% α helix)” value [3] does the source give for NCCCC[C@H](NC(=O)[C@H](CCCCN)NC(=O)C1(NC(=O)C2(NC(=O)[C@H](CCCCN)NC(=O)C3(NC(=O)C4(NC(=O)[C@H](CCCCN)NC(=O)[C@H](CCCCN)NC(=O)C5(NC(=O)C6(NC(=O)[C@@H](N)CCCCN)CCCCC6)CCCCC5)CCCCC4)CCCCC3)CCCCC2)CCCCC1)C(=O)NC1(C(N)=O)CCCCC1 [Ch-13, H—LysChChLysLysChChLysChChLysLysCh—NH2] (H-K[Ac6c][Ac6c]KK[Ac6c][Ac6c]K[Ac6c][Ac6c]KK[Ac6c]-NH2) here?
Answer: 61%

Question: What about the “Reduction in bacterial infection compared to controls (in words)” value [4] of the same molecule?
Answer: no significant reduction in bacterial infection

Question: What about the “% Bacterial Reduction” value [4] of the same molecule?
Answer: 33%

Question: Which “% Bacterial Reduction” value [4] does the source give for CC(=O)NC1(C(=O)NC(C)(C)C(=O)NC(C)(C)C(=O)N[C@@H](CCCCN)C(=O)NC(C)(C)C(=O)NC(C)(C)C(=O)N[C@@H](CCCCN)C(=O)NC(C)(C)C(=O)NC(C)(C)C(=O)NC2(C(N)=O)CCNCC2)CCNCC1 [Ipi-10-ac, Ac—ApiAibAibLysAibAibLysAibAibApi—NH2] (Ac-[Api][Aib][Aib]K[Aib][Aib]K[Aib][Aib][Api]-NH2) here?
Answer: 0%

Question: For CC(=O)NC(C)(C)C(=O)NC(C)(C)C(=O)NC1(C(=O)N[C@@H](CCCCN)C(=O)NC(C)(C)C(=O)NC(C)(C)C(=O)NC2(C(=O)N[C@@H](CCCCN)C(=O)NC(C)(C)C(=O)NC(C)(C)C(N)=O)CCNCC2)CCNCC1 [Pi-10-ac, Ac—AibAibApiLysAibAibApiLysAibAib—NH2] (Ac-[Aib][Aib][Api]K[Aib][Aib][Api]K[Aib][Aib]-NH2), which “Infected Macrophage Survival Rate” value [1] is on record?
Answer: 62 ± 2.00

Question: What about the “% Bacterial Reduction” value [4] of the same molecule?
Answer: 0%
